{"source": "PubChem BioAssay (Tox21)", "note": "Inconclusive means that the source gave no clear call. Such entries were picked first, then a sample of the others. Potencies of inconclusive entries are left out as doubtful fits. The source made the active and inactive calls. The call rests on the fitted dose curve; in most records, active means well fitted curve in the direction sought with a large enough effect in the repeat runs; inconclusive means weak or mixed curves; inactive means no such curve, though single readings can be large; an effect the other way counts as inactive or inconclusive. Potency means the concentration at half of the fitted maximal effect; tags describe the fitted curve by direction and shape.", "data": [{"experiment": "A CellTox Green Cytotoxicity Assay to monitor cytotoxicity in HEK293 cells - 16 hour (AID 1224888); further: nearly all actives have a fitted effect of over 35% in size", "conditions": "CellTox Green fluorescence; series mostly up to 76.8 µM", "summary_of_the_method": "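Seeding of HEK293 cells together with cytotoxicity dye preceded a 5 h incubation at 37 C/5% CO2. Test compounds in DMSO were then added and fluorescence monitored across 40 h.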", "values": [{"molecule": "C(=C\\c1ccccc1)/c1ccccc1", "Potency": "inconclusive [activator, single point]"}, {"molecule": "CC(=O)OCC[N+](C)(C)C", "Potency": "inactive"}, {"molecule": "OCC#CCO", "Potency": "inconclusive [activator, single point]"}, {"molecule": "O=C(OCC(COC(=O)c1cccnc1)(COC(=O)c1cccnc1)COC(=O)c1cccnc1)c1cccnc1", "Potency": "inactive"}, {"molecule": "N#CCc1ccc(Cl)cc1Cl", "Potency": "inactive"}, {"molecule": "CC[C@H]1CN2CCc3cc(OC)c(OC)cc3[C@@H]2C[C@@H]1C[C@H]1NCCc2cc(OC)c(OC)cc21", "Potency": "inconclusive [activator, single point]"}, {"molecule": "CCC(O)C(C)(C)C", "note": "(stereo unspecified)", "Potency": "inconclusive [activator, single point]"}, {"molecule": "N#CCCN(CCO)CCO", "Potency": "inactive"}, {"molecule": "CSc1cnc(C)cn1", "Potency": "active: 89.4 µM"}, {"molecule": "CC=C(Cl)Cl", "Potency": "inconclusive [activator, single point]"}, {"molecule": "CC(=O)OCC(COC(C)=O)OC(C)=O", "Potency": "inactive"}, {"molecule": "O=C(OC(=O)c1ccccc1)c1ccccc1", "Potency": "inactive"}, {"molecule": "CCCCCCC(=O)c1ccccc1", "Potency": "inactive"}, {"molecule": "Cc1cc(O)cc2c1O[C@](C)(CCC[C@H](C)CCC[C@H](C)CCCC(C)C)CC2", "Potency": "inactive"}, {"molecule": "CCCCCCC/C=C/C=O", "Potency": "inconclusive [activator, partial curve]"}, {"molecule": "CCC(O)OC(O)CC", "note": "(stereo unspecified)", "Potency": "inactive"}]}, {"experiment": "qHTS RealTime-Glo MT Cell Viability Assay in HepG2 cells - 0 hour (AID 1224889); further: nearly all actives have a fitted effect of over 50% in size", "conditions": "RealTime-Glo luminescence; series mostly up to 76.8 µM", "summary_of_the_method": "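Cells + NanoLuc/prosubstrate dispensed (600 cells/well) → 5 h at 37 C/5% CO2 → compounds in DMSO transferred → 40 h incubation at 37 C, luminescence read at 0, 8, 16, 24, 32, 40 h.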", "values": [{"molecule": "CCCCCCOCCOCCO", "Potency": "inactive"}, {"molecule": "C[C@@H]1C[C@H]2[C@@H]3C[C@H](F)C4=CC(=O)C(Cl)=C[C@]4(C)[C@@]3(F)[C@@H](O)C[C@]2(C)[C@@]1(O)C(=O)CO", "Potency": "inconclusive [cytotoxic, partial curve]"}, {"molecule": "CCOC(=O)NNc1ccc(N(CC)CC(C)O)nn1", "note": "(stereo unspecified)", "Potency": "inconclusive [cytotoxic, single point]"}, {"molecule": "O=C(CCCN1CC=C(n2c(=O)[nH]c3ccccc32)CC1)c1ccc(F)cc1", "Potency": "inconclusive [cytotoxic, partial curve]"}, {"molecule": "CC(C)(C)CC(=O)OCC(=O)[C@@]1(O)CC[C@H]2[C@@H]3CCC4=CC(=O)C=C[C@]4(C)[C@H]3[C@@H](O)C[C@@]21C", "Potency": "active: 1.34 µM"}]}]}
